Laboratory results reported in a collection of fitness landscapes (doi:10.1016/j.celrep.2020.107928).
In all, about 81,000 sequences were measured (“one-hybrid fitness for binding parS DNA”: median about -0.17, highest 2% from about 0.51 on). The list shows a part of the results.

B1: Caulobacter ParB omega fusion; a variant is named by its letters at X, in order, B8GW30 (parent)
chain: MESVVVGEPGMSEGRRGLGRGLSALLGEVDAAPAQAPGEQLGGSREAPIEILQRNPDQPRRTFREEDLEDLSNSIREKGVLQPILVRPSPDTAGEYQIVAGERAWRAAQRAGLKTVPIMVRELDDLAVLEIGIIENVQRADLNVLEEALSYKVLMEKFERTQENIAQTIGKSXSHVANXMRLLXLPDEVQSYLVSGELTAXHARAIAAAADPVALAKQIIEGGLSVRETEALARKAPNLSAGKSKGGRPPRVKDTDTQALESDLSSVLGLDVSIDHRGSTGTLTITYATLEQLDDLCNRLTRGI

Variants of: B1
Assay: one-hybrid fitness for binding parS DNA (scaled: cognate 1, non-cognate 0); higher = stronger binding
Details: with parS DNA site
In short: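 Fitness here means the log change in variant-to-wild-type read ratio between plasmids sequenced before and after selection. That scale was set so cognate equals 1 and non-cognate equals 0. The selection was a bacterial one-hybrid screen of Caulobacter ParB libraries, four specificity codons randomised, in E. coli USO carrying a HIS3 reporter with the site 19 bp from the promoter, grown 48 hours at 37°C on M9-minus-histidine with 0.1 mM IPTG and 5 mM 3-AT.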

one-hybrid fitness for binding parS DNA, 0.25:
NECT

one-hybrid fitness for binding parS DNA, 0.425:
RQHN

one-hybrid fitness for binding parS DNA, 0.884:
RQAT

one-hybrid fitness for binding parS DNA, ≤ 0.2:
VCSC
QGWS
REQP
MAFM
RMPM
SHCR
CDNT
VKDT
HVIS
YCHT
EGYR
LCPS
ACPK
SASI
APEM
PPCV
NSHP
QHIY
GAYR
LSPG
EKDG
MYTL
TMSQ
PLHG
CGPC
CKSR
CEAV
TMTP
YGFV
PEKN
SNPK
TPGT
FVPG
KGRW
NHNC
THRH
DGVS
PWDT
DWDT
YAGV
KPRL
HLLS
WTSF
VELW
HNNT
SADA
HLTT
MIRY
VRDY
CHRF
RWVI
QISE
RPMS
ASGG
IRPG
GPVR
NCQG
PWCF
TMML
WPTF
SPVE
NWNA
LTYA
ADTR
RHNF
TVGR
HPNK
IKSS
VEAH
KNVC
SPGW
VHLL
DMKE
GVCA
NAEP
MIHG
NHST
LAGT
SVGP
PLDI
PFHN
ATGL
SSNC
TFWT
DEHG
RVSR
IWQR
RVSE
HLCM
QNKH
GCHN
PIYM
MQIF
MSYH
GECA
